Assay results: the supplement of paper PMC10126150
Sequences with one replicate were seen in a single cluster, so their values are uncertain.

The sequences below were run on ATP (assay: switch fluorescence ratio, 500 uM ATP over buffer (Cy3 cluster intensity, sum of 5 cycles each) (fold (ratio)); higher = stronger signal-on switching upon ATP binding; sequences stand for … in TCGTCGGCAGCGTCAGATGTGTATAAGAGACAGTTTTTTTTTTTTTTTTTTTTTTTTT…TC). Conditions: aptamer strand: ATP DNA aptamer (quencher-CACCTGGGGGAGTATTGCGGAGGAAGG + anchor), 100 nM annealed; ATP concentration: 500 uM; one replicate.
Method in brief: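 Cy3-labelled switching-strand clusters on a modified Illumina MiSeq flow-cell were annealed to 100 nM quencher-labelled ATP aptamer and imaged first in selection buffer, then after 15 min with 500 uM ATP at 22 °C. NaOH stripping and re-annealing separated each of five buffer/ATP cycles, and clusters outside 100-1000 RFU were excluded. The fluorescence ratio sums target-cycle Cy3 intensity over buffer-cycle Cy3 intensity per cluster and averages it per switch-domain sequence.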
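Further: ATP exposure 15 min at 22 °C before imaging.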

Row | Sequence | switch fluorescence ratio
1 | GAGTCTGGTA | 1.02
2 | GAGTGAGGTC | 1.03
3 | GAGTGCGGGG | 1.02
4 | GAGTGCTAGG | 1.02
5 | GAGTGGCGGA | 1
6 | GAGTGGGGCA | 0.977
7 | GAGTGTATTA | 1.01
8 | GAGTGTCCCC | 1.01
9 | GAGTGTCCTT | 1.03
10 | GAGTTACCGA | 1.03
11 | GAGTTAGAGG | 1.02
12 | GAGTTAT | 1.01
13 | GAGTTCGTGT | 0.98
14 | GAGTTGACTT | 1.04
15 | GAGTTGATAT | 1
16 | GAGTTGCTA | 1.05
17 | GAGTTGTCTC | 1.06
18 | GAGTTGTGCT | 0.981
19 | GAGTTGTGGA | 0.986
20 | GAGTTTCGAT | 0.971
21 | GAGTTTGCAG | 0.982
22 | GAGTTTGCCC | 0.994
23 | GAGTTTTTGC | 1.02
24 | GATAAACAAA | 1.02
25 | GATAAATTTA | 0.99
26 | GATAATCCA | 0.996

Row | Sequence | switch fluorescence ratio
27 | GATAATGGAG | 0.981
28 | GATAATGTAT | 0.999
29 | GATAATTCCT | 1
30 | GATACACGTC | 0.991
31 | GATACCATCG | 1
32 | GATACCTCGG | 0.978
33 | GATACTGAAT | 1.04
34 | GATACTGTAT | 1.13
35 | GATACTTAAG | 1
36 | GATAGATCTC | 0.984
37 | GATAGGGGTA | 0.96
38 | GATAGGTCC | 1.1
39 | GATATATGTG | 0.982
40 | GATATCGAGG | 0.993
41 | GATATTCATA | 0.974
42 | GATATTCCCG | 1.05
43 | GATATTCTA | 1.03
44 | GATATTTATT | 1.02
45 | GATATTTTG | 0.955
46 | GATCACCCAT | 1.01
47 | GATCACGGAA | 1.08
48 | GATCACTTGG | 1.03
49 | GATCATATCA | 0.986
50 | GATCATGAGG | 0.993
51 | GATCATGATT | 0.979
52 | GATCATGTCT | 0.973

Row | Sequence | switch fluorescence ratio
53 | GATCATTCCG | 0.997
54 | GATCCAGGAT | 0.985
55 | GATCCATGGT | 0.997
56 | GATCCCGGCG | 1.06
57 | GATCCCGTTT | 0.974
58 | GATCGAAAGT | 1
59 | GATCGACCCA | 1.02
60 | GATCGCAAAG | 2.54
61 | GATCGCAGTG | 0.985
62 | GATCGGGTGC | 1.09
63 | GATCGGTATC | 1.03
64 | GATCGTGTCG | 0.988
65 | GATCTAAGCC | 0.97
66 | GATCTAATGC | 1.11
67 | GATCTACCAG | 1
68 | GATCTACCTG | 1.01
69 | GATCTAGGCG | 1.16
70 | GATCTAGTGC | 1
71 | GATCTGCCA | 1.03
72 | GATCTTGTGG | 0.971
73 | GATGAAATAA | 1.03
74 | GATGAACCAC | 1.09
75 | GATGAACGCG | 1.01
76 | GATGAAGATA | 1.03
77 | GATGACTTCG | 0.965
78 | GATGAGAAGG | 1.01

Row | Sequence | switch fluorescence ratio
79 | GATGAGAGCG | 1.06
80 | GATGAGCCTC | 1.01
81 | GATGATACTC | 1.15
82 | GATGATTTAT | 1.01
83 | GATGATTTG | 0.916
84 | GATGCAAATT | 1.04
85 | GATGCAATGT | 3.35
86 | GATGCACAA | 1.05
87 | GATGCAGTCC | 1.03
88 | GATGCGATTG | 1.07
89 | GATGCGGCAT | 1.03
90 | GATGCGGTAT | 0.969
91 | GATGCTATGT | 1.04
92 | GATGCTGAGA | 0.966
93 | GATGCTGTCA | 1.03
94 | GATGGAAAAT | 1.04
95 | GATGGAGGCA | 1.04
96 | GATGGCATG | 0.981
97 | GATGGCCATA | 1.01
98 | GATGGCTGAA | 1.02
99 | GATGGGACTA | 1.01
100 | GATGGGGGT | 0.991
101 | GATGGTGG | 0.987
102 | GATGGTGGAA | 0.984
103 | GATGGTGGTC | 1.06
104 | GATGGTTCGA | 0.941

Row | Sequence | switch fluorescence ratio
105 | GATGTAAGCT | 1.03
106 | GATGTACAGC | 0.964
107 | GATGTAGCAC | 1.07
108 | GATGTATCGA | 0.976
109 | GATGTCATCC | 0.946
110 | GATGTCTAAA | 0.985
111 | GATGTGACTT | 1.02
112 | GATGTTAAAG | 0.964
113 | GATGTTCGAT | 1.02
114 | GATGTTGCCT | 1.06
115 | GATGTTGGAT | 0.993
116 | GATGTTTAGA | 0.982
117 | GATTAAAAAC | 1.05
118 | GATTAAGATC | 1.02
119 | GATTACAGCC | 1.03
120 | GATTACCCAC | 1.59
121 | GATTACCGAT | 1.04
122 | GATTACGATA | 1.13
123 | GATTACGGTA | 1.16
124 | GATTACTCTT | 1.07
125 | GATTAGTTGG | 1.03
126 | GATTATAACT | 0.949
127 | GATTATTACG | 1.02
128 | GATTCAAGCG | 1.01
129 | GATTCAGAAG | 0.979
130 | GATTCAGATT | 0.991

Row | Sequence | switch fluorescence ratio
131 | GATTCAGCAT | 1.1
132 | GATTCCATCT | 1.04
133 | GATTCCGACT | 1.15
134 | GATTCCTATG | 1.02
135 | GATTCCTTA | 1
136 | GATTCGAAGC | 0.911
137 | GATTCGAGGA | 1.02
138 | GATTCGCAAC | 4.41
139 | GATTCGCCCT | 1.04
140 | GATTCGCGCC | 1.03
141 | GATTCGTATG | 0.905
142 | GATTCTATTT | 0.993
143 | GATTCTGCTG | 1.01
144 | GATTCTTAGA | 0.971
145 | GATTGAATGT | 0.974
146 | GATTGACAG | 1.03
147 | GATTGACGTT | 1.01
148 | GATTGACTGG | 0.988
149 | GATTGAGTCG | 0.95
150 | GATTGCGATT | 1.03
151 | GATTGGCGGA | 0.918
152 | GATTGGCTGG | 0.99
153 | GATTGGGATC | 0.96
154 | GATTGGTGAT | 0.997
155 | GATTGTAGCA | 0.974
156 | GATTGTGCCT | 0.997

Row | Sequence | switch fluorescence ratio
157 | GATTTAGACA | 1.03
158 | GATTTAGATG | 1.01
159 | GATTTCGAC | 0.997
160 | GATTTCTCCA | 1.07
161 | GATTTGAAAG | 0.935
162 | GATTTGGAAC | 1.01
163 | GATTTGTAAG | 1.02
164 | GATTTGTTGC | 0.984
165 | GATTTTCGGT | 1.04
166 | GATTTTGCAC | 0.97
167 | GCAAAACGTG | 1.06
168 | GCAAAACTAT | 1.01
169 | GCAAAATTTG | 0.999
170 | GCAAACCTAG | 0.995
171 | GCAAACGACG | 1.18
172 | GCAAACGATA | 1.1
173 | GCAAACGCCT | 1.14
174 | GCAAACGTCT | 1.05
175 | GCAAATAGTA | 0.976
176 | GCAACCCTG | 1.02
177 | GCAACGGCCG | 0.997
178 | GCAAGAAGGG | 1.02
179 | GCAAGCAGGT | 1.07
180 | GCAAGCAGTG | 0.969
181 | GCAAGGCCGC | 1.08
182 | GCAAGGTGAT | 1.16

Row | Sequence | switch fluorescence ratio
183 | GCAATAGGTC | 1.82
184 | GCAATCACGA | 2.67
185 | GCAATGAAGT | 1.03
186 | GCAATGGGGC | 1.31
187 | GCAATGTTTT | 0.998
188 | GCAATTAGG | 1.08
189 | GCAATTGTT | 1.03
190 | GCACAATATA | 0.99
191 | GCACAGTTGC | 1
192 | GCACATCGGC | 1.03
193 | GCACCAAATT | 1
194 | GCACCAATAG | 1.33
195 | GCACCATGG | 1.12
196 | GCACCCTTGT | 1.02
197 | GCACCGAGTT | 0.996
198 | GCACCGGTAG | 1.06
199 | GCACCGTATT | 1.15
200 | GCACCTAATA | 1.05
201 | GCACGAAGAT | 1.03
